Data: patent US5766581, “Method for treating mammals with monopegylated proteins that stimulates megakaryocyte growth and differentiation” (Amgen Inc., dated 1998)

Key:
[1] = molecular target: human Mpl receptor, full length, on cells (human, UniProt P40238); assay: cell-based or functional assay
[2] = molecular target: murine Mpl receptor, full length, expressed on 32D cells (subclone 1A6.1) (murine, UniProt Q08351); assay: cell-based or functional assay

B1: human MGDF-1 ([…] of SEQ ID NO: 25) (ligand)
chain: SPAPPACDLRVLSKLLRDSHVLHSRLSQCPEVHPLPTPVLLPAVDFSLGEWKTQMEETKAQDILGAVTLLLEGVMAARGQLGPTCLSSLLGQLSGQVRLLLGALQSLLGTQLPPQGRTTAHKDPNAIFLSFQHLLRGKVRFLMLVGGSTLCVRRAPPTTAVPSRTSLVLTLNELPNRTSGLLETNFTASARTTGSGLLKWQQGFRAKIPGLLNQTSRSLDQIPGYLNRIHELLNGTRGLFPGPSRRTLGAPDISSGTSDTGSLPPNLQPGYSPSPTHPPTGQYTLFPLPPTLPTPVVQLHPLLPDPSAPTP
[1]
  Megakaryocytes per Well (-mur-MPL-X): 142 megakaryocytes per well
[2]
  U/ml (- mur-MPL-X), 1A6.1 cells: 12800 U/ml
